A lower IC50 marks a more sensitive line; a limit (>, <) means that the fit lies beyond the doses tested. The AUC spans the tested range (256-fold, ending at the top dose) of the same fit; it is 1 without any effect and falls as sensitivity rises. A top dose marked as inferred comes from the curve model; the source does not state it.

Compound in one assay: Cc1cccc(-c2[nH]c(C(C)(C)C)nc2-c2ccc3nccnc3c2)n1 [SB-525334]
The assay can be described thus: Viability of human cancer cell lines after 72 h of drug (GDSC screen). The conditions noted are these: top dose 20 µM; top dose inferred. How it is done: (§1)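 Human cancer cell lines in 384-well plates, medium with 10% serum, drug for 72 h over a 256-fold dose range (nine 2-fold or five 4-fold steps up to the top dose). Adherent lines were fixed and stained with the nucleic acid dye Syto60, suspension lines read with resazurin; signal relative to control wells, capped at 0 and 100%. One two-parameter sigmoid per drug and line, fitted in a mixed model over all curves with the slope shared within a line.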
Usually IC50 stands for the concentration that inhibits the measured activity by half. As to CHSA8926 (chondrosarcoma, adherent), the AUC was determined as 0.98 and the half-inhibitory concentration (IC50) was more than 20 µM.

For the cell line “COR-L23 (large cell lung carcinoma, adherent)”, the AUC is 0.967 and the 50% inhibitory concentration (IC50) was more than 20 µM.

CP50-MEL-B (melanoma, adherent): the AUC was 0.506 and the half-inhibitory concentration (IC50) was determined as 1.29 µM.

CS1 (bone, adherent): the AUC stood at 0.963 and the half-maximal inhibitory concentration (IC50) is more than 20 µM.

As for CaR-1 (large intestine, adherent), the AUC came out at 0.975 and the half-inhibitory concentration (IC50) is more than 20 µM.

Calu-3 (lung adenocarcinoma, adherent): the AUC was found to be 0.981 and the half-maximal inhibitory concentration (IC50) was more than 20 µM.

Regarding Capan-2 (pancreas, adherent), the AUC was found to be 0.884 and the IC50 was more than 20 µM.

With DBTRG-05MG (glioma, adherent), the AUC was 0.932 and the concentration for half-maximal inhibition (IC50) is more than 20 µM.

In the case of “DMS-273 (small cell lung carcinoma, adherent)”, the AUC worked out at 0.656 and the 50% inhibitory concentration (IC50) turned out to be 3.48 µM.

Turning to DOK (head and neck, adherent), the AUC amounted to 0.976 and the half-inhibitory concentration (IC50) was more than 20 µM.

With EN (endometrium, adherent), the AUC was 0.934 and the half-inhibitory concentration (IC50) was more than 20 µM.

Consider ESS-1 (endometrium, adherent), for which the AUC came out at 0.988 and the half-maximal inhibitory concentration (IC50) is more than 20 µM.

Consider EW-7 (Ewing sarcoma, semi-adherent), for which the AUC is 0.601 and the concentration for half-maximal inhibition (IC50) was determined as 2.28 µM.

FADU (head and neck, adherent): the AUC was found to be 0.976 and the IC50 is more than 20 µM.

For the cell line FTC-133 (thyroid, adherent), the AUC amounted to 0.934 and the concentration for half-maximal inhibition (IC50) was more than 20 µM.

With G-401 (kidney, adherent), the AUC stood at 0.888 and the IC50 was more than 20 µM.

H513 (mesothelioma, semi-adherent): the AUC was 0.976 and the IC50 was more than 20 µM.

Take H2369 (mesothelioma, adherent): the AUC was determined as 0.976 and the concentration for half-maximal inhibition (IC50) was more than 20 µM.

Consider H2461 (mesothelioma, adherent), for which the AUC stood at 0.973 and the IC50 was more than 20 µM.

On to H2595 (mesothelioma, adherent), for which the AUC was 0.973 and the IC50 is more than 20 µM.

Turning to H2731 (mesothelioma, adherent), the AUC came out at 0.883 and the half-inhibitory concentration (IC50) is more than 20 µM.

As to H2795 (mesothelioma, adherent), the AUC came to 0.941 and the IC50 is more than 20 µM.

In the case of H2869 (mesothelioma, adherent), the AUC was found to be 0.905 and the 50% inhibitory concentration (IC50) is more than 20 µM.

Regarding HCC38 (breast, adherent), the AUC amounted to 0.889 and the half-maximal inhibitory concentration (IC50) was more than 20 µM.

For the cell line HCC1419 (breast, adherent), the AUC is 0.848 and the IC50 is more than 20 µM.

HCC1428 (breast, adherent): the AUC stood at 0.977 and the IC50 is more than 20 µM.

Regarding HCC1569 (breast, adherent), the AUC is 0.956 and the IC50 is more than 20 µM.

Consider HCC1954 (breast, adherent), for which the AUC is 0.983 and the IC50 is more than 20 µM.

Regarding HCC-56 (large intestine, adherent), the AUC amounted to 0.984 and the half-maximal inhibitory concentration (IC50) was more than 20 µM.

Regarding HCC-78 (lung adenocarcinoma, adherent), the AUC turned out to be 0.912 and the IC50 was more than 20 µM.

Compound in the next assay: Cc1ccc(-n2nc(C(C)(C)C)cc2NC(=O)Nc2ccc(OCCN3CCOCC3)c3ccccc23)cc1 [BIRB 0796]
Described as above. The conditions noted are these: top dose 10 µM; top dose inferred. How it is done: as §1
On to CHSA8926 (chondrosarcoma, adherent), for which the AUC amounted to 0.969 and the IC50 is more than 10 µM.

As for “COR-L23 (large cell lung carcinoma, adherent)”, the AUC is 0.972 and the IC50 was more than 10 µM.

In the case of CP50-MEL-B (melanoma, adherent), the AUC worked out at 0.988 and the IC50 was more than 10 µM.

CS1 (bone, adherent): the AUC is 0.935 and the half-inhibitory concentration (IC50) is more than 10 µM.

For CaR-1 (large intestine, adherent), the AUC amounted to 0.975 and the half-maximal inhibitory concentration (IC50) was more than 10 µM.

Calu-3 (lung adenocarcinoma, adherent): the AUC came to 0.978 and the IC50 is more than 10 µM.

For Capan-2 (pancreas, adherent), the AUC is 0.979 and the half-maximal inhibitory concentration (IC50) is more than 10 µM.

With DBTRG-05MG (glioma, adherent), the AUC was 0.978 and the IC50 was more than 10 µM.

In the case of “DMS-273 (small cell lung carcinoma, adherent)”, the AUC was 0.942 and the IC50 was more than 10 µM.

As to DOK (head and neck, adherent), the AUC turned out to be 0.951 and the IC50 was more than 10 µM.

Consider EN (endometrium, adherent), for which the AUC turned out to be 0.959 and the IC50 was more than 10 µM.

For the cell line ESS-1 (endometrium, adherent), the AUC amounted to 0.987 and the IC50 is more than 10 µM.

As to EW-7 (Ewing sarcoma, semi-adherent), the AUC came out at 0.99 and the IC50 was more than 10 µM.

As for FADU (head and neck, adherent), the AUC was determined as 0.942 and the IC50 was more than 10 µM.

In the case of FTC-133 (thyroid, adherent), the AUC was found to be 0.944 and the half-maximal inhibitory concentration (IC50) is more than 10 µM.

Take G-401 (kidney, adherent): the AUC was determined as 0.911 and the IC50 is more than 10 µM.

H513 (mesothelioma, semi-adherent): the AUC is 0.986 and the IC50 was more than 10 µM.

On to H2369 (mesothelioma, adherent), for which the AUC amounted to 0.857 and the IC50 worked out at 8.59 µM.

Regarding H2461 (mesothelioma, adherent), the AUC is 0.96 and the concentration for half-maximal inhibition (IC50) is more than 10 µM.

Take H2595 (mesothelioma, adherent): the AUC was 0.964 and the 50% inhibitory concentration (IC50) was more than 10 µM.

In the case of H2731 (mesothelioma, adherent), the AUC stood at 0.893 and the half-inhibitory concentration (IC50) is more than 10 µM.

With H2795 (mesothelioma, adherent), the AUC was 0.985 and the half-inhibitory concentration (IC50) was more than 10 µM.

As for H2869 (mesothelioma, adherent), the AUC turned out to be 0.918 and the IC50 was more than 10 µM.

Consider HCC38 (breast, adherent), for which the AUC is 0.985 and the concentration for half-maximal inhibition (IC50) was more than 10 µM.

For the cell line HCC1419 (breast, adherent), the AUC was found to be 0.912 and the half-maximal inhibitory concentration (IC50) is more than 10 µM.

HCC1428 (breast, adherent): the AUC was found to be 0.982 and the IC50 is more than 10 µM.

Consider HCC1569 (breast, adherent), for which the AUC turned out to be 0.965 and the concentration for half-maximal inhibition (IC50) was more than 10 µM.

As for HCC1954 (breast, adherent), the AUC worked out at 0.955 and the IC50 is more than 10 µM.

With HCC-56 (large intestine, adherent), the AUC was 0.979 and the IC50 is more than 10 µM.

Take HCC-78 (lung adenocarcinoma, adherent): the AUC turned out to be 0.957 and the half-inhibitory concentration (IC50) was more than 10 µM.

Compound in a further assay: NC(=O)c1ccc(N(C(N)=O)c2c(F)cccc2F)nc1-c1ccc(F)cc1F [VX-702]
The description is as above. The following applies: top dose 2 µM; top dose inferred. On the procedure: as §1
CHSA8926 (chondrosarcoma, adherent): the AUC turned out to be 0.98 and the IC50 was more than 2 µM.

Turning to “COR-L23 (large cell lung carcinoma, adherent)”, the AUC was 0.988 and the half-maximal inhibitory concentration (IC50) is more than 2 µM.

In the case of CP50-MEL-B (melanoma, adherent), the AUC came to 0.972 and the IC50 is more than 2 µM.

For CS1 (bone, adherent), the AUC was 0.984 and the concentration for half-maximal inhibition (IC50) was more than 2 µM.

In the case of CaR-1 (large intestine, adherent), the AUC was determined as 0.942 and the IC50 is more than 2 µM.

Regarding Calu-3 (lung adenocarcinoma, adherent), the AUC is 0.961 and the IC50 is more than 2 µM.

Source of the values: the supplement of paper PMC4967469.
